Drawing on patent publication US20220290101A1, this text covers 100 nM L1 (DELFIA signal) (fluorescence units) for one molecule.

The experiment deals with L1 (DV1-GV4) soluble heterodimeric γδ TCR antigen, leucine zipper (LZ) format (human). Put plainly: DELFIA affinity ranking with 100 nM biotinylated L1.
L1 (DV1-GV4) soluble heterodimeric γδ TCR antigen, leucine zipper (LZ) format (human), sequence (main, as listed by the source): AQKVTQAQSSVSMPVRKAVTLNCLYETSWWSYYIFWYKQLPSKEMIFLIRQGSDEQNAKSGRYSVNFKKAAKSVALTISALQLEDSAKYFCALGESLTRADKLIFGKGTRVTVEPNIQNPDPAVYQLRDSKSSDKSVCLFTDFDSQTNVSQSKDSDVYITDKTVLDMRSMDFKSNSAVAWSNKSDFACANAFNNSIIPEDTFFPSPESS

B1: 1245_P01_G06 (scFv) (scFv)
scFv: QVQLVESGGGLVKPGGSLRLSCAASGFTFSDYYMSWIRQAPGKGLEWVSYISSSGSTIYYADSVKGRFTISRDNAKNSLYLQMNSLRAEDTAVYYCARHSWNDAFDVWGQGTLVTVSSGGGGSGGGGSGGGAS[about 100 residues omitted]
The molecule B1 came in with a 100 nM L1 (DELFIA signal) (fluorescence units) of 22500.
